# According to the supplement of paper PMC11417369:
# The other results are listed elsewhere or left out.
# System: PfAP2-HC AP2 domain (GST-tagged)
# Experiment: gcPBM binding intensity (ln(normalized median fluorescence intensity)); higher = stronger DNA binding
# Method in brief: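 An Agilent 4 × 180k array of primer-extended double-stranded 36-bp intergenic genomic probes, with negative controls, was incubated for 1 h with GST-tagged P. falciparum DNA-binding domains expressed in E. coli. Alexa488 anti-GST antibody detected bound protein, scanned at 488 nm. Binding intensity is the highest Masliner-normalised natural-log median intensity across replicate spots of either probe orientation.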
row,Sequence,gcPBM binding intensity (ln)
1,AGAATAGAATAAAAAACACACATTTACAACATTATT [CACACA_site3894],10
2,GTATTTAGATGATTAACACACATATGTGTATTAATA [CACACA_site6733],9.79
3,ATATATATTATTGAATGTACATAATTATTTAATAGT [XGTACX_site4971],9.75
4,ATATATTCACGTTAATGTACACATAATAAATTATAT [XGTACX_site5481],9.66
5,AATTATATTGGTTGTAGTACTAAAAGTAAGTTAATG [XGTACX_site33],9.87
6,TATTCACTGATATGTTGTACATAAAAAAAATTAAAT [XGTACX_site6128],9.47
7,CACGCACGCACATACACACACATACACATATAAATA [CACACA_site6907],10.1
8,ATGTTGTTCATAAATATATTATTTTTAAATGTACAA [GTGCAC_negctrl_site507],9.43
9,AAAAAAAAAAAAAAAAGTACATATATTATATATATA [XGTACX_site2983],9.45
10,TGAAAAAAGAAAAATACACACATATAATATAATATA [CACACA_site2255],9.8
11,TTTTTTATATTGATATTTATTAAATATGAAATGTTA [GTGCAC_negctrl_site405],9.29
12,AATAAAATATAAGGGGGTACGGAGAAAGGATACTAT [XGTACX_site7733],9.99
13,TTATATAAGATATTTCGTACACATTCAAAAATTATG [XGTACX_site7375],9.51
14,TGTCTTTATATATATTTATTTTTTAGTATTACATAA [CACACA_negctrl_site21],9.76
15,ATTTTCATATTTTTATGTACATATTATAAGAATATA [XGTACX_site3691],9.63
16,TATCTTTTTTTTAATACACACAAATTTATGAAAGTA [CACACA_site7879],9.38
17,ATGGAATATTTCATGATTTTTTTAATTTTTTTATTG [XGTACX_negctrl_site55],9.5
18,ACAAAACATATATTCTGTACATATATAATGGTGACT [XGTACX_site6796],9.77
19,TTTATATCTTATTATAGGAAAATGAATATTTTCTCT [TGCATGCA_negctrl_site478],9.31

row,Sequence,gcPBM binding intensity (ln)
1,AAGAAAATATAAATATGTACTTAATAATTTATTTAT [XGTACX_site8100],9.47
2,AAAAAAGAGGGATACACACAAACATATATATATATA [CACACA_site2243],9.94
3,AAAATAAAAAGAAATTGTACGTATAATAATATATTT [XGTACX_site7593],9.84
4,TTTATTTTAAAATTTACACACAAAAGGATTTATAGA [CACACA_site2338],9.5
5,TATATTAATTAACAGTGTACAAAAAAAAATAAAAAA [XGTACX_site3702],9.84
6,TATTAAAATAACATACGTACATAAGTATATAAAAAA [XGTACX_site1769],9.72
7,AGGATACACGGACACACACACATATATATATATATA [CACACA_site4654],10.6
8,TTTATTCCAGTATTCACACACGAATAACCACATAAC [CACACA_site5104],9.99
9,ATAATTCTTTATTATAGTACACAAACTTTCAAAACA [XGTACX_site3597],9.42
10,CTATACATATTATATAGTACTTTATTATTATGACTA [XGTACX_site1382],9.6
11,TATATAAGAGGAAAAAGTACAGAAAAACAAAGAGAA [XGTACX_site2926],9.81
12,TGTATTTATAGCAATACACACATAACAATAAATATA [CACACA_site3328],9.79
13,GTGGTTATATATTAAGTGCATATTATAATTTTAAAC,9.52
14,AATATCTAAAATGTGTGTACATAATATTTTTAATAT [XGTACX_site3831],9.56
15,ATAGATAAAAAATTATTTATTTAGAATTTTTATGTA [CACACA_negctrl_site400],9.52
16,TGTATAAATAAATGCGTACACACTAATAAAAAAAAA [CACACA_site858],9.91
17,TTATGTAAATAATTTTGTACTTAAATTATTATATAA [XGTACX_site1491],9.42
18,CAACTTTTTGAAAATTGTACATGACATATATATATA [XGTACX_site260],9.36
19,AAAAAAAATATGATGAGTACACAATAATACATGCAA [XGTACX_site6999],9.93

row,Sequence,gcPBM binding intensity (ln)
1,AGAATTACTTAAAAAAGTACATAAAATTATTTAAAA [XGTACX_site2205],9.55
2,AATATAAAAATGTTTACACACACACCCAAATATATT [CACACA_site2511],10.2
3,ATTACATTTTTAATGCGTACTAAAAATGTATATAAG [XGTACX_site6384],9.53
4,AATACACCCAGACACACACACAAAAAAAAAAAAAAA [CACACA_site513],10.1
5,ATATATATATTAAATACACACATTTTTGATTAGGTT [CACACA_site3119],9.76
6,AAAAGAGAAATGGGCACACACACACCGATTATATAT [CACACA_site4942],11
7,TTTGAATCCTTATATACACACATTATGTAATATTAT [CACACA_site561],9.88
8,TTATTATCTCTTGTCATTATTATATACTAAGAAGTA [CACACA_negctrl_site410],9.52
9,AATATGAAATATATTACACACATTTATATGTTGAAA [CACACA_site1427],9.75
10,AAAGATTTAGAAAATGAACACACGAGCACCCACCGA [CACACA_site1017],10.5
11,GAAAGAGAGATATATACACACATATTTATATTTTTA [CACACA_site7057],9.79
12,ATATTAAGAATGTATACATGCATATATATATAGTAC [TGCATGCA_site219],9.88
13,ATTTTAATAAACACTTACATGTTTTCCAAATTGTAT [CACACA_negctrl_site1807],9.56
14,TTCGTTAAAAATAAATGTACATAAATAAACCTTATT [XGTACX_site621],9.49
15,TATTAATAAATATGTTTACACACGAAAATACATTTT [CACACA_site1012],9.73
16,TCTAATTATCACATTGCACACACATTTCCTTTTACA [CACACA_site9140],10.1
17,TTATACTGTATAGTCGCACACAAAAATATAAAATAT [CACACA_site3869],9.98
18,TAATTAATTTATGTAACACACATTGTTGATTCAATA [CACACA_site1098],9.65
